Measured values reported in PubChem BioAssay (NCI).
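Compound exposure: 48 hours, 5 concentrations, 96-well plates. The concentration for 50% growth inhibition is given as GI50.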 Not every entry of the source has a single result; some have several. This is not the full list of results. The source may hold further records. For some of these results: A record mostly stands for its own series of concentrations, which the source does not state; a value can be the end of its range. For some of these results: Values given together repeat one measurement (runs, samples, wells, individuals or studies). Records carry a tag for their origin. The letters are not those of the source and start again with each entry.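 TGI: total growth inhibition.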

Legend:
Test in all cases: growth of human tumour cells (NCI), 48 h
HT29 colon = tested on: HT29 colon
UACC-257 melanoma = tested on: UACC-257 melanoma
A498 renal = tested on: A498 renal
OVCAR-3 ovarian = tested on: OVCAR-3 ovarian
TK-10 renal = tested on: TK-10 renal
ACHN renal = tested on: ACHN renal
DU-145 prostate = tested on: DU-145 prostate
CCRF-CEM leukemia = tested on: CCRF-CEM leukemia
KM20L2 colon = tested on: KM20L2 colon
MDA-N = tested on: MDA-N
K-562 leukemia = tested on: K-562 leukemia
MDA-MB-435 = tested on: MDA-MB-435
NCI/ADR-RES ovarian = tested on: NCI/ADR-RES ovarian
MOLT-4 leukemia = tested on: MOLT-4 leukemia

COc1cccc2c1C(=O)c1c(O)c3c(c(O)c1C2=O)C[C@@](O)(C(=O)CN1CCOCC1)C[C@@H]3OC1CC(N)C(O)C(C)O1 (stereo partly specified)
TGI (HT29 colon): 0.894 nM and 40 µM | TGI (UACC-257 melanoma): 0.918 nM and 29.3 µM

CN(C)c1ccc(C(=N)c2ccc(N(C)C)cc2)cc1
GI50 (A498 renal): 1.51 µM [sample A, 1 test] and 132 nM [sample B, 1 test]

CC(=O)O[C@@]12CO[C@@H]1C[C@H](O)[C@@]1(C)C(=O)[C@H](O)C3=C(C)[C@@H](OC(=O)[C@H](O)[C@@H](NC(=O)OC(C)(C)C)c4ccccc4)C[C@@](O)([C@@H](OC(=O)c4ccccc4)C12)C3(C)C (stereo partly specified)
TGI (OVCAR-3 ovarian): 5.54 nM and 11.5 µM | GI50 (A498 renal): < 5 nM and 416 nM | GI50 (TK-10 renal): 10.8 nM and 14 µM | GI50 (ACHN renal): 49.9 nM and 11.2 µM | TGI (DU-145 prostate): 6.57 nM and > 100 µM

COC1CC(C)C(OC)c2cc(O)cc(c2O)NC(=O)/C(C)=C/C=C\C(C)C(OC(N)=O)/C(C)=C\C(C)C1OC (stereo unspecified)
TGI (CCRF-CEM leukemia): 297 nM, 1.63 µM, 5.91 µM | TGI (KM20L2 colon): 3.04 µM and 74 µM | GI50 (MDA-N): 635 nM and 56.9 nM | TGI (K-562 leukemia): 198 nM [1 test] and 3.83 µM, 11.5 µM [mean of 3 tests] | GI50 (MDA-MB-435): 83.6 nM and 18.2 µM | GI50 (NCI/ADR-RES ovarian): 16.1 µM and > 500 µM | TGI (NCI/ADR-RES ovarian): 30.9 µM and > 500 µM | TGI (MOLT-4 leukemia): 272 nM, 1.59 µM, 15.4 µM
